The target in experiment [1] is VEGF-A 121 (UniProt P15692). Description: blocking ELISA, VEGF-A 121-His to coated VEGFR2-Fc. For orientation: ELISA stands for enzyme-linked immunosorbent assay.
Experiment [2] concerns the target VEGF-A 121 (UniProt P15692). Description: ELISA, coated VEGF-A 121, anti-human Fc-HRP.
For another experiment, the target named is VEGF-A165 (UniProt P15692). Nature of the experiment: ELISA, coated VEGF-A 165, anti-human Fc-HRP.

As usually defined, the EC50 is the concentration needed to bring the measured effect to its halfway point. Low values mean an effect from little substance, high ones a need for much substance.

A number of entries come with more than one value. This is not the full list of results. An entry can have further records. The records of an entry read as repeated measurements (runs, samples, wells or individuals).

Turning to Eylea (Fc fusion), the EC50 with VEGF-A 121 [1] is 0.955 µg/mL and 9.55 nM [lines of one column]; in the experiment with VEGF-A 121 [2], 0.0719 µg/mL and 0.719 nM [lines of one column]; with VEGF-A165 it was 0.0174 µg/mL and 0.174 nM [lines of one column].

Values taken from patent US20250002557A1.
